Laboratory results: PubChem BioAssay AID434955 (Southern Research Specialized Biocontainment Screening …, 2010)
Some of the results follow. Further columns of the screen follow, without active or inactive calls. The list favours compounds with an active or inconclusive main result.

Test: beta-lactam sensitization of Mtb H37Rv, H37Rv (AID 434955);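 note: growth measured after seven days incubation then overnight dye step; 0% = bacteria only wells and 100% = bacteria with antibiotic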
Details: M. tuberculosis H37Rv growth with meropenem, percent inhibition; measured here: primary screen without meropenem; at 25 µM

Structure (SMILES) | inhibition
CCN(CCN(C)C)C(=O)Cn1ncc2c1-c1cc(C)ccc1OC2 | -3.45%
O=C(c1sc2cccc(Cl)c2c1Cl)N1CCN(CCc2ccccn2)CC1 | 5.34%
CCCCn1nc2cc(C(=O)NCC34CC5CC(CC(C5)C3)C4)ccc2c1OCC | 50.9%
O=C(COc1ccc(S(=O)(=O)Nc2ccccc2)cc1)NCc1cccnc1 | 3.34%
CC(C)C(NC(=O)CC12CC3CC(CC(C3)C1)C2)C(=O)O (stereo unspecified) | 1.89%
CCCCSc1nc2sc3c(c2c(=O)n1-c1ccccc1)CCN(C)C3 | 69.7%
O=C(CCC1CCCCC1)NCc1ccc(F)cc1 | 2.93%
COc1ccc(OC)c(C(=O)N2CCCC(Nc3ccc(F)cc3)C2)c1 (stereo unspecified) | 3.07%
Cn1c(SCC(=O)OC2CCCCC2)nnc1-c1ccc2c(c1)OCO2 | 27.1%
COc1ccc(Cl)cc1NC(=O)c1cccc(N2C(=O)C3CC=CCC3C2=O)c1 (stereo unspecified) | 0.51%
CCOc1ccc(NC(=O)CC2C(=O)NCCN2C(=O)Nc2ccccc2)cc1 (stereo unspecified) | -6.77%
CN[C@@H]1[C@H](O)[C@H](NC)[C@H]2O[C@@]3(O)C(=O)C[C@@H](C)O[C@H]3O[C@@H]2[C@H]1O | 5.05%
Cc1ccc(NC(=S)Nc2ncccc2C)c(C)c1 | 7.16%
COc1ccccc1-n1c(/C=C/c2ccccn2)nc2ccccc2c1=O | -5.93%
O=S(=O)(c1ccccc1)N1CCN=C1SCc1c(F)cccc1Cl | 8.46%
CCn1c(=O)c2ccccc2n2c(SCC(=O)N3CCCc4ccccc43)nnc12 | -8.56%
CCCN(CCC)C(=O)CSc1ncccc1C(=O)O | 2.67%
COc1ccc(-c2csc(NC(CO)c3nc4ccccc4n3Cc3ccc(C)cc3)n2)cc1 (stereo unspecified) | 25.6%
O=C(CSc1ncccc1C(=O)O)NCCC1=CCCCC1 | 4.65%
CCOC(=O)C1CCN(S(=O)(=O)c2c(Cl)ccc3nonc23)CC1 | 44.7%
O=C(N/N=C/c1c(O)n(Cc2ccc(F)cc2)c(=S)[nH]c1=O)c1ccncc1 | 58.9%
CN(CC1COc2ccccc2O1)C(=O)c1cc(COc2c(F)cccc2F)on1 (stereo unspecified) | 7.08%

Structure (SMILES) | inhibition
CC1CC(C)CN(CCCNC(=O)CN2C(=O)c3cccnc3Oc3ccc(Cl)cc32)C1 (stereo unspecified) | 7.54%
O=C(Nc1ccc(F)c(F)c1)NC1CCCCC1 | -9.69%
CCOC(=O)c1ccccc1NC(=O)COC(=O)CN1C(=O)NC2(CCCC2)C1=O | 7.78%
COC(=O)c1c(NC(=O)c2ccc(N(C)S(=O)(=O)c3ccc(C)cc3)cc2)sc2c1CCCC2 | 14.9%
CNC(=O)c1c(NC(=O)c2ccco2)sc2c1CCCC2 | -3.2%
N#C/C(=C/c1ccc(N2CCCCC2)o1)C(=O)Nc1ccc(Cl)cc1 | 2.7%
COc1cccc(NC(=O)C2CC2)c1 | 21.5%
C[C@]12CC[C@H]3[C@@H](CCC4=CC(=O)CC[C@@]43O)[C@@H]1CCC2=O | -4.5%
C=CCSc1nsc(N)n1 | 1.36%
Cc1cc(N2CCC(C)CC2)c(F)cc1[N+](=O)[O-] | 3.72%
Cc1cccc(NC(=O)c2nc[nH]c2C(=O)NC2CCN(C(=O)OC(C)(C)C)CC2)c1 | 78.2%
CC(C)Cn1c(-c2csc3c2CCCC3)n[nH]c1=S | -7.19%
CC(C)n1cc(CN2CCC(n3nccc3NC(=O)Cc3ccccc3)CC2)cn1 | -1.99%
O=C(c1cccs1)N1CCN(S(=O)(=O)c2ccccc2)CC1 | -6.9%
COCCn1c(=O)[nH]c2cc(C(=O)NCC3CCCO3)ccc2c1=O (stereo unspecified) | -6.75%
CCCCN(C(=O)C1CC(=O)N(Cc2ccc(C)cc2)C1)c1c(N)n(CC(C)C)c(=O)[nH]c1=O (stereo unspecified) | -14.7%
CCCCCn1c(=O)c(C(=O)Nc2cnccn2)c(O)c2ccccc21 | -5.68%
Cc1ccnc2c(N3C(=O)C4C5C=CC(C5)C4(C)C3=O)cccc12 (stereo unspecified) | 0.31%
CSc1nc2cc3c(cc2n1C(=O)c1ccc(C)cc1)OCCO3 | 54.6%
CCc1ccc(NC(=O)Cn2ccn(-c3cccc(Cl)c3)c(=O)c2=O)cc1 | -7.5%
CCOP(=O)(C(NC(=O)c1ccccc1Cl)=C(Cl)Cl)c1ccccc1 (stereo unspecified) | 2.23%
O=C1CSc2ccc(C(=O)NCCC3=CCCCC3)cc2N1 | -4.88%

Structure (SMILES) | inhibition
COc1ccccc1CN1CC(C(=O)N2CCCCCCC2)CCC1=O (stereo unspecified) | -7.25%
CCCCNC(=O)CN(c1ccc(Cl)c(Cl)c1)S(C)(=O)=O | 0.94%
Cc1ccc(Nc2cc(C)nc3ncnn23)c(Cl)c1 | -6.1%
COc1ccc(S(=O)(=O)N(C)CC(=O)NC2CC2)cc1OC | 3.47%
Cc1cc(Br)ccc1NC(=O)CN1C(=O)C2CC=CCC2C1=O (stereo unspecified) | 59.5%
COC(=O)c1ccc(C(=O)OC)c(NC(=O)CSc2cccc[n+]2[O-])c1 | 100%
Cc1nnnn1/C(=C\c1ccccc1)C(=O)OCC(=O)NC1CCCCC1 | 39.5%
COc1cc(OC)c2ccc(=O)oc2c1C(CC(=O)N1CCN(c2ccccc2)CC1)c1ccc2c(c1)OCO2 (stereo unspecified) | 38.5%
O=C(NCCc1ccccc1Cl)C1CCC(=O)N(Cc2ccc(Cl)cc2)C1 (stereo unspecified) | 6.77%
CC(=O)c1ccc(S(=O)(=O)Nc2cccc(S(=O)(=O)NC3=NCCC3)c2)cc1 | 0.25%
COC(=O)C1=C(C)NC2=C(C(=O)CC(C)(C)C2)C1c1cccc(C)n1 (stereo unspecified) | -6.4%
Cc1ccc(C(=O)N/C(=C\c2cccc([N+](=O)[O-])c2)C(=O)NC(Cc2ccccc2)C(=O)O)cc1 (stereo unspecified) | 3.26%
CCOC(=O)c1[nH]c(C)c(/C(O)=C2\C(=O)C(=O)N(CCN(C)C)C2c2cccc(OC)c2OC)c1C (stereo unspecified) | -0.95%
CC(=O)Nc1ccc(S(=O)(=O)Oc2ccc(Br)cc2C(=S)N2CCOCC2)cc1 | -1.11%
Cn1c(=O)cc(OCC(=O)N2CCC3(CC2)OCCO3)c2ccccc21 | -3.05%
O=C(Nc1ccncc1Cl)c1ccncc1 | -12.7%
CN1CCN(CCCC(=O)c2ccc(F)cc2)CC1 | -6.04%
COCC1CCN(C(=O)c2ccc3oc(Cc4ccccc4)nc3c2)C1 (stereo unspecified) | 8.29%
Cc1c(C=O)c(C=O)c(C)n1Cc1ccccc1 | 41.3%
Cn1nnnc1Sc1ncnc2scc(-c3ccc[nH]3)c12 | 88.8%
O=C(Cc1cccc2ccccc12)N/N=C/c1ccc(OC(=O)/C=C/c2ccco2)cc1 | 9.56%
COCCCNC(=O)Cn1cc2c(n1)CCC(C)C2 (stereo unspecified) | -3.69%

Structure (SMILES) | inhibition
COc1cc(C(=O)NC2CCCCC2)ccc1OCc1ccc(Cl)cc1Cl | 1.14%
CCCC(O)(c1ccc(Cl)cc1)C(CN1CCOCC1)c1ccc(Cl)cc1 (stereo unspecified) | 34.7%
N#Cc1c(-c2ccc(F)cc2)cc(-c2cccnc2)nc1N | 7.5%
Cc1ccc2c(c1)N(CC(=O)N1CCCC1)C(=O)c1cccnc1O2 | 2.62%
O=C(CSc1nnc(NC(=O)C2CC(=O)N(c3ccc(F)cc3)C2)s1)NCc1ccco1 (stereo unspecified) | 2.41%
COc1ccc(C(=O)NCCNC(C)=O)cc1S(=O)(=O)NCc1ccc(Cl)cc1 | -18.4%
CCOc1ccc(S(=O)(=O)N2CCCC(C(=O)N3CCOCC3)C2)cc1 (stereo unspecified) | 0.73%
COc1ccc(C(CNC(=O)c2cc(=O)[nH]c3ccccc23)N2CCCC2)cc1 (stereo unspecified) | 0.24%
COc1ccc(N(CC(=O)N/N=C/c2cccc(OC)c2OC)S(=O)(=O)c2ccccc2)cc1 | -5.39%
CCc1c(C)nc2ncnn2c1N1CCC(C(=O)NCc2ccc3c(c2)OCO3)CC1 | 4.56%
COc1ccccc1NC(=O)c1cnc(Nc2ccccc2OC)c2ccccc12 | 8.27%
COc1ccc(-n2c(O)c(C=NCCN3CCN(C(C)=O)CC3)c(=O)[nH]c2=S)cc1 | -0.26%
CC(C)CNc1c2c(nc3ccccc13)CCC2 | 3.61%
CS(=O)(=O)c1ccc2c(c1)SC1=NC(=O)/C(=C/c3ccco3)C(=N)N12 | -1.32%
Cc1ccccc1C(=O)Nc1nnc(SCC(=O)NCc2ccco2)s1 | -1.21%
c1ccc2nc3c(nc2c1)c1ccccc1n3CCN1CCOCC1 | 1.7%
Cc1c(NS(=O)(=O)c2ccc(N3CCCCC3)c([N+](=O)[O-])c2)c(=O)n(-c2ccccc2)n1C | -11.9%
Cc1cccc(C(=O)NCC(=O)N2CCOCC2)c1 | 5.14%
O=C1c2ccccc2C(Nc2ccc3c(c2)OCCO3)N1Cc1ccco1 (stereo unspecified) | -2.9%
CCCn1c2ccccc2c2nnc(SCC(=O)OCC)nc21 | 47.6%
O=C(O)c1ccc(N2C(=O)CC(Cc3ccccc3)C2=O)cc1 (stereo unspecified) | -0.74%
CCOC(=O)c1c(C)n(C)c2ccc(OC)c(NC(=O)c3cccs3)c12 | -13%

Structure (SMILES) | inhibition
CCOC(=O)CSc1nnc(-c2ccc(S(=O)(=O)NCc3cccs3)cc2)o1 | 99.6%
CCOc1cccc(CN2CCC(n3nccc3NC(=O)C3CC3)CC2)c1O | 3.34%
CCn1c(=S)sc2c(=O)n(CC(=O)Nc3cccc(Br)c3)c(C)nc21 | 5.68%
Cc1cc(C(=O)N2CCCC(N3CCN(c4cccc(Cl)c4)CC3)C2)no1 (stereo unspecified) | 4.85%
Cc1ccc(C)c(NC(=O)COC(=O)c2ccc(S(=O)(=O)N3CCCCC3)cc2)c1 | 12.3%
Cc1ccc(S(=O)(=O)NNC(=O)c2ccc(O)cc2)cc1 | 9.92%
C/C(=N\NC(=O)c1csc2ccccc12)c1ccc(O)cc1 | 10%
Cc1cccc(Cl)c1NC(=S)NN | 25.9%
COC(=O)c1cc(OC)c(OC)cc1NC(=O)c1ccc(OC)c(OC)c1 | 51.9%
O=C(CN(Cc1ccc(Cl)cc1)S(=O)(=O)c1ccccc1)NCC1CCCO1 (stereo unspecified) | -6.08%
CC1(C)Cc2c(cnn2-c2ccccc2)C(NC(=O)CCCN2CCCC2=O)C1 (stereo unspecified) | 1.71%
COc1cc2c(cc1OC)CN(C(=O)Cc1ccccc1)CC2 | 7.16%
CC(C)(C)c1nnc(NC(=O)C2c3ccccc3Oc3ccccc32)s1 | 37.4%
CCN(CC)C(=O)c1ccccc1NC(=O)c1cccc(S(=O)(=O)N(CC)CC)c1 | -0.02%
Cc1cccc(C)c1OCc1cc(C(=O)N(C)Cc2nc3ccccc3[nH]2)no1 | 10.9%
Cc1ccc(C)c(NC(=O)c2ccc(S(=O)(=O)N(C)CC3CCCO3)cc2)c1 (stereo unspecified) | 5.09%
O=C(NC(=S)N1CCN(c2ccccc2)CC1)c1ccccc1 | 67.5%
Cc1occc1C(=O)NC1CCCN(Cc2ccc(CC(C)C)cc2)C1 (stereo unspecified) | 17.6%
